The list shows a part of the results.
System: PF3D7_0420300 AP2 domain 1 (GST-tagged)
Test: gcPBM binding intensity (ln(normalized median fluorescence intensity)); higher = stronger DNA binding
Procedure, shortened: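 DNA-binding domains from P. falciparum, fused to GST and produced in E. coli, were put on an Agilent 4 × 180k double-stranded probe array for 1 h in 1× PBS holding 1% milk, 0.2 mg/ml BSA, 0.5% salmon testes DNA and 0.03% Triton X-100. Probes were primer-extended, 36 bp long and drawn from intergenic genomic regions, with negative controls included. After Alexa488 anti-GST antibody detection and a 488 nm scan, binding intensity was set as the highest Masliner-normalised natural-log median intensity across replicate spots of either probe orientation.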

Sequence | gcPBM binding intensity (ln)
ATACATACATATGTATGTACGTATGTATGTATGTAT [XGTACX_site3853] | 9.13
ATATCTTCACTTATATGTACTTACATTTTTTTTTTT [XGTACX_site8696] | 9.47
ATTTGTATATAATATATATAATTTTTTTTTTTTGTT [XGTACX_negctrl_site425] | 9.28
ATAACTATATACATCTGTACATAATACATAGATAAA [XGTACX_site2795] | 9.31
TGATAAATTTTCACATGTACATATATAGAATAACCT [XGTACX_site2860] | 9.21
ATTAAATCATATGAATGTACGGATATATATATTTCC [XGTACX_site8650] | 9.13
ATAATATATGCAAAAACATGCACATAATATGTAAAA [TGCATGCA_site742] | 9.01
ATAATTTTATATAAATGTACATACATTTTTATTATA [XGTACX_site7368] | 9.12
ATATATATGTATATATGTACATATATGTATATATAT [XGTACX_site4772] | 9.19
TATACACATAGACACACACACATACACGCACATACA [CACACA_site6908] | 10.1
TCTAAAAAAATTATATCACACATTATAAAGCATATT [CACACA_site4885] | 9.26
TAATAAGTATCAAAATGTACATGACAAAAATAATTT [XGTACX_site8961] | 9.39
ATTTGAAAAAATACTACACACCATATTGTTAATTTT [CACACA_site3829] | 9.44
AAGATTCATATAAAAAGTACAAAAAGAAAAAAATAA [XGTACX_site6033] | 9.33
TAATATATAAATATATGTACATAATAAATAGGATAT [XGTACX_site3661] | 9.44
TTTATATAAGGACATGCATGCTATTATTAAATATAT [TGCATGCA_site1011] | 9.08
ACTTCATAGGTTACCTGTACATATAAGGAGTTATCA [XGTACX_site4110] | 9.11
TACGCGAAATGAATATGTACATATATGAGGGCATAT [XGTACX_site4293] | 9.31
ATGAATTAACCTAATCGTACAATAAATATTATTATA [XGTACX_site596] | 9.07

Sequence | gcPBM binding intensity (ln)
ATATATATATATGTATGTATATATATATGTTTGATT [XGTACX_negctrl_site62] | 9.26
ACTATTTAAAAATATGGTACACGAAATTCAAGAGAA [XGTACX_site5903] | 9.35
AAGTTTTATATTTATTAAATTTTTTTTTTTCCTTTT [XGTACX_negctrl_site184] | 9
TTTTTTATTTTGTTGAAGCAATGAAAATGAATGAAA [TGCATGCA_negctrl_site495] | 8.9
ATATGTTTAAAAATATGTACGTATTATATATTCTAT [XGTACX_site1358] | 9.34
TTGTTTATGTGAGAAGTGCATTTTTTCGTTCATGTA | 9.33
ATGTAAGTATAAAATGTGCGCATTGGGAATGAGGAC | 9.98
TTTTTATTTTTTGTCTGTACATATATAAATTTATTA [XGTACX_site1525] | 9.37
GATATAAGGGTATGAAGTACATAAATATTTTATGCT [XGTACX_site1886] | 9.28
TATGCACGCGAACACACACACACAACTAAAAAATAA [CACACA_site7251] | 9.97
GGAAACCCTCCCAAATGTACTTTTATAAAAAAATAC [XGTACX_site5502] | 9.36
TATACTCAGAAACACACACACACACCCAAAAAAAAA [CACACA_site4434] | 9.97
ATATAAGTACATATAACACACATATATTATAAGTAT [CACACA_site2647] | 9.62
TTTGCCATAAAACACACACACATGTAAACCCCCTTT [CACACA_site1646] | 9.95
AAAAAAAAAAAAAAAACACACATACACCCAGACACA [CACACA_site5807] | 9.6
ATACATATATAAATATGTACACACATATGTATGATC [XGTACX_site8219] | 9.42
GAATATTTATCATGGGGTACCTTAAAAAAGGGAAAA [XGTACX_site298] | 9.06
TTTTATTTATAATATATACACACTAACATTATTTAT [CACACA_site1284] | 9.24
ATATCTTAAATTATTTGTACATATATATATATATAT [XGTACX_site8034] | 9.35

Sequence | gcPBM binding intensity (ln)
AATATAAACCCAAACACACACATATATATATATATA [CACACA_site268] | 9.81
TTTTTTTTTTTGAGGAGGACACAAAAATATGCTACC [XGTACX_site756] | 8.94
TATATTCTTTTAAACAGTACACACACACATATATAT [XGTACX_site1701] | 10.2
AATATAAAAATATAAAAACACACGTAAAAAAATTTA [CACACA_site3399] | 9.73
AAAAAAATTAAAAATAAAGAAAAAAAAAAAAAAAAA [GTGCAC_negctrl_site401] | 8.69
TGTAGATATTATATATGTACGCATATGAAATATATA [XGTACX_site1586] | 9.09
TTCAAAATATATATTTGTACATATAGGATCTTTTTC [XGTACX_site4500] | 9.05
AAAATATATAATATAACACACATATATTCTATATGG [CACACA_site4044] | 9.43
TAATTATATAAATATTGTACAAAAAAAATATATATA [XGTACX_site3137] | 9.18
GTAATATCAATATAAAGTACACACTATAGTATGTAT [XGTACX_site4714] | 9.52
TCTTTTTTTTTTTTTTTTTTTTTTTTTTTTTTTTTT [GTGCAC_negctrl_site18] | 9.17
ATTTTAATGACATATACACACAAAGGTTCATAACAA [CACACA_site5664] | 9.58
TTTTCTTTTTAAATTACACACACATATATATATGTA [CACACA_site9172] | 9.66
ATAAAACCAACATAGAGTACAGATCGACTATGTTTC [XGTACX_site4329] | 9.5
TTAACGCTTATTTTTTGTACTTATTTTATTTTAAAT [XGTACX_site3977] | 9.59
CAACATTAATATAAAGCACACATATATATAATATAT [CACACA_site8064] | 9.53
ACTCTATAATAAAATACACACAAGACTATCTAATAT [CACACA_site1796] | 9.61
ATATATACATATAATTGTACTTGTGTTGTTTTTCTT [XGTACX_site1870] | 9.75
TACAAAAGCGATACGGCACACATTTCCTGTTTAAAT [CACACA_site2746] | 9.41
